Results: the supplement of paper PMC12217912
Some of the results follow. Sequences were assembled here from the parent chain. Values near 0.05 are background.

B1: TEV protease; numbered along this chain (parent)
chain: MGESLFKGPRDYNPISSSICHLTNESDGHTTSLYGIGFGPFIITNKHLFRRNNGTLVVQSLHGVFKVKDTTTLQQHLVDGRDMIIIRMPKDFPPFPQKLKFREPQREERICLVTTNFQTKSMSSMVSDTSCTFPSGDGIFWKHWIQTKDGQCGSPLVSTRDGFIVGIHSASNFTNTNNYFTSVPKNFMELLTNQEAQQWVSGWRLNADSVLWGGHKVFMVKPEEPFQPVKEATQL

Variants of: B1
Test: raw area under fraction-flipped curve 0-4 h after induction (AUC4h, not background-subtracted), DNA-recorder readout of cleavage of the substrate (dimensionless); higher = more cleavage of the substrate by the protease variant
Conditions: temperature: 34 °C; time window: 0-4 h after rhamnose induction
Protocol: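 In vivo DNA recorder in E. coli TOP10(DE3) ΔrhaA at 34 °C. Each TEVp single-site mutant (parent TEVp 0) is paired with a single-site variant of the 7-mer TEVs (canonical ENLYFQ|S). The substrate sits between flexible linkers in a Bxb1-sfGFP-TEVs-SsrA fusion, so cleavage stabilises Bxb1 and speeds flipping of a recombination array, read by NGS. The value is the raw area under the fraction-flipped curve over 0-4 h after rhamnose induction (AUC4h), with ≥20 reads per time point. It is not background-subtracted; inactive controls average about 0.047.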
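Also: Bxb1 expression induced with 0.2% (w/v) L-rhamnose at OD600 near 0.5, cultures sampled hourly, flipped fraction per protease–substrate barcode pair counted by paired-end Illumina sequencing.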

| Variant | area with substrate ENLYAQS | area with substrate ENLYDQS | area with substrate ENLYEQS | area with substrate ENLYGQS | area with substrate ENLYIQS | area with substrate ENLYKQS | area with substrate ENLYLQS | area with substrate ENLYMQS | area with substrate ENLYNQS | area with substrate ENLYPQS | area with substrate ENLYQQS | area with substrate ENLYSQS | area with substrate ENLYVQS | area with substrate ENLYWQS | area with substrate ENLYYQS | area with substrate ENLYHQS | area with substrate ENLYRQS | area with substrate ENLYTQS | area with substrate ENLYCQS |
| --- | --- | --- | --- | --- | --- | --- | --- | --- | --- | --- | --- | --- | --- | --- | --- | --- | --- | --- | --- |
| V183C | 0.0747 | 0.0543 | 0.0564 | 0.0548 | 0.135 | 0.0737 | 0.09 | 0.0921 | 0.0737 | 0.0679 | 0.0697 | 0.0602 | 0.0963 | 0.0618 | 0.0639 | – | – | – | – |
| V183I | 0.0678 | 0.0539 | 0.0675 | 0.0745 | – | 0.0405 | 0.0813 | 0.0835 | 0.064 | – | – | 0.0795 | 0.106 | 0.101 | 0.0499 | 0.0589 | – | – | – |
| T176L | 0.0576 | – | 0.0654 | 0.0777 | 0.0737 | 0.0578 | – | 0.0736 | 0.064 | – | 0.0671 | 0.0823 | 0.0866 | 0.0702 | – | – | 0.0823 | 0.0689 | – |
| P155M | 0.0724 | – | 0.0494 | 0.0567 | 0.0901 | – | – | 0.066 | 0.0473 | 0.0698 | 0.0587 | – | 0.0769 | – | – | 0.0536 | 0.047 | – | 0.0629 |
| P155F | 0.0665 | 0.0674 | 0.0558 | 0.0502 | 0.0484 | 0.051 | 0.0572 | 0.0485 | 0.0585 | 0.0542 | 0.0679 | 0.0095 | 0.0548 | 0.049 | – | 0.0668 | 0.0557 | – | – |
| P155E | 0.0765 | – | 0.0759 | 0.0411 | – | 0.0494 | – | – | 0.0578 | 0.0635 | 0.0584 | 0.065 | – | – | – | 0.0536 | 0.0698 | 0.0586 | 0.048 |
| F133D | 0.0895 | 0.063 | 0.0698 | – | 0.113 | 0.065 | – | 0.081 | – | – | – | 0.0748 | 0.0847 | 0.0811 | – | 0.064 | 0.0608 | 0.0918 | – |
| V157R | 0.0542 | – | 0.0473 | 0.0636 | – | 0.0574 | – | 0.0517 | 0.0604 | 0.0534 | 0.0528 | 0.0634 | 0.0875 | 0.0599 | – | 0.0648 | 0.0573 | 0.0436 | – |
| V157N | 0.0411 | 0.0507 | 0.0502 | 0.0591 | 0.0558 | 0.0493 | – | 0.0587 | 0.0553 | 0.0507 | 0.0709 | 0.0493 | – | 0.0553 | 0.0574 | 0.0498 | – | 0.064 | 0.0682 |
| M188L | 0.0881 | 0.0599 | 0.0733 | 0.0899 | 0.143 | 0.0659 | – | 0.0543 | 0.0675 | – | 0.0703 | 0.0687 | – | 0.0796 | 0.036 | – | – | – | 0.0906 |
| N178I | 0.059 | 0.0673 | 0.0723 | – | – | 0.0522 | – | – | – | 0.0593 | – | 0.0662 | – | – | – | – | – | – | 0.0707 |
| R160A | 0.0744 | – | 0.0678 | 0.0682 | – | 0.0699 | – | 0.0737 | 0.067 | 0.053 | – | 0.0611 | 0.129 | 0.0742 | – | 0.0726 | 0.0714 | – | 0.0814 |
| K148M | 0.0705 | 0.0533 | 0.0747 | 0.0731 | 0.139 | 0.0615 | – | – | 0.0961 | 0.0853 | – | – | 0.1 | – | 0.0678 | 0.0919 | 0.055 | 0.0964 | – |
| G150L | 0.0616 | 0.0694 | 0.0583 | 0.0635 | 0.0574 | 0.0419 | – | 0.0632 | 0.0557 | 0.0583 | – | 0.0671 | 0.0511 | 0.0556 | 0.0582 | 0.0572 | 0.0625 | – | 0.0638 |
| G150F | 0.0685 | 0.0725 | 0.0575 | 0.0602 | 0.0703 | 0.0621 | – | 0.0559 | 0.0543 | 0.0601 | 0.0419 | 0.0534 | – | 0.06 | 0.0407 | 0.0464 | 0.0717 | 0.0681 | 0.0494 |
| I145C | 0.0746 | 0.0719 | 0.0748 | 0.071 | – | 0.075 | – | 0.0993 | 0.0773 | 0.0737 | 0.0618 | 0.108 | 0.186 | 0.129 | 0.0692 | 0.0575 | 0.0668 | 0.105 | – |
| D149S | 0.0795 | 0.0471 | 0.0697 | 0.0905 | 0.099 | 0.0585 | – | 0.0937 | – | 0.0759 | 0.0622 | 0.0876 | – | – | 0.0708 | 0.0806 | – | – | – |
| I139N | 0.0575 | 0.0546 | 0.0354 | 0.0652 | 0.0779 | – | 0.0596 | 0.0313 | 0.0729 | 0.0624 | 0.0889 | – | 0.114 | 0.0695 | – | 0.0655 | 0.0613 | – | 0.0747 |
| I139Q | 0.0757 | 0.0563 | 0.0676 | 0.0625 | 0.0992 | – | 0.0652 | 0.0771 | – | – | – | 0.0615 | 0.0821 | 0.0681 | – | 0.0449 | 0.0372 | – | – |
| F180I | 0.0596 | 0.0635 | 0.0669 | 0.0493 | 0.0605 | 0.0573 | – | – | 0.0523 | 0.081 | 0.0393 | – | 0.0593 | 0.0331 | 0.0601 | 0.0501 | 0.0614 | – | – |
| G138Q | 0.0628 | – | 0.0691 | – | – | 0.0597 | – | – | 0.0432 | 0.0938 | – | 0.0676 | – | – | – | – | – | – | – |
| I167F | 0.0688 | 0.0875 | 0.0554 | 0.0678 | 0.097 | – | – | 0.0529 | 0.0624 | 0.0584 | 0.0479 | 0.0659 | 0.0957 | 0.0491 | 0.0514 | 0.0663 | 0.0639 | 0.0715 | 0.0815 |
| Q151H | 0.0761 | 0.0652 | 0.0642 | – | 0.054 | 0.0645 | – | 0.0664 | 0.0609 | 0.0872 | 0.0662 | 0.0712 | 0.0972 | 0.0794 | – | – | 0.0685 | 0.0699 | – |
| G166S | 0.0519 | 0.0499 | 0.0636 | 0.0616 | 0.0416 | 0.0582 | – | 0.0455 | 0.0497 | 0.0603 | 0.055 | 0.047 | – | 0.0413 | 0.0519 | 0.051 | – | 0.0448 | – |
| T181G | 0.0659 | – | 0.0524 | 0.0548 | – | 0.0642 | 0.0547 | 0.0573 | 0.0599 | – | 0.0373 | 0.0787 | – | 0.0699 | 0.0501 | 0.0588 | – | – | 0.0719 |
| S135I | 0.0607 | 0.0567 | 0.0593 | 0.0623 | 0.0704 | 0.0503 | – | – | 0.0634 | 0.0537 | 0.0641 | 0.0651 | 0.0996 | 0.0554 | 0.0554 | 0.057 | 0.0657 | 0.055 | 0.0819 |
